Patent US10299477B2 (priority 2015, dated 2019)

Assays:
Format in all cases: in vivo
Alternaia brassicicola = assay: Test Example C: Alternaria sooty spot on cabbage; conditions: Alternaria sooty spot on cabbage
Excerpt: [Test Example C] Alternaria Sooty Spot on Cabbage
Seeds of a test plant (cabbage variety: Shikidori) were planted followed by cultivating until the cotyledons extended.

Puccinia recondita = assay: Test Example E: Brown rust on wheat; conditions: for Test E control value: Brown rust on wheat; for Test E (control value class): brown rust on wheat, Puccinia recondita, 250 ppm spray
Excerpt: [Test Example E] Brown Rust on Wheat

[1] = test system: Blumeria graminis f sp. hordei; assay: Test Example D: Powdery mildew on barley
Excerpt: [Test Example D] Powdery Mildew on Barley
After the sprayed dilutions were dried, conidia of Blumeria graminis f sp. hordei were inoculated to the plants by shaking off.

Botrytis cinerea = assay: Test Example B: Gray mold on tomato
Excerpt: [Test Example B] Gray Mold on Tomato
Seeds of a test plant (tomato variety: Oogata Fukuju) were planted followed by cultivating until three to five first leaves (true leaves) appeared.

[2] = powdery mildew on barley, 250 ppm spray
[3] = gray mold on tomato, Botrytis cinerea, 250 ppm spray

Row | Structure (SMILES) | Test C control value (Alternaia brassicicola) | Test E control value (Puccinia recondita) | Test D control value ([1]; Powdery mildew on barley) | Test B control value (Botrytis cinerea; Gray mold on tomato) | also measured
1 | CN1C(=O)CCC(c2c(F)cccc2F)=C1c1ncc(Cl)cc1Cl [Compound 3] | L (L shows 50% or less of control values) | H (H shows more than 50% of control values) | H (H shows more than 50% of control values) | L (L shows 50% or less of control values) | 
2 | CCN1C(=O)CCC(c2c(F)cccc2F)=C1c1ncc(Cl)cc1Cl [Compound 4] | L (L shows 50% or less of control values) | H (H shows more than 50% of control values) | H (H shows more than 50% of control values) | L (L shows 50% or less of control values) | 
3 | Cn1c(-c2ncc(Cl)cc2Cl)c(-c2c(F)cccc2F)ccc1=O [Compound 5] | H (H shows more than 50% of control values) | H (H shows more than 50% of control values) | H (H shows more than 50% of control values) | H (H shows more than 50% of control values) | 
4 | CCn1c(-c2ncc(Cl)cc2Cl)c(-c2c(F)cccc2F)ccc1=O [Compound 6] | H (H shows more than 50% of control values) | H (H shows more than 50% of control values) | H (H shows more than 50% of control values) | H (H shows more than 50% of control values) | 
5 | COc1cnc(-c2c(-c3c(F)cccc3F)ccc(=O)n2C)c(Cl)c1 [Compound 7] | H (H shows more than 50% of control values) | H (H shows more than 50% of control values) | L (L shows 50% or less of control values) | H (H shows more than 50% of control values) | 
6 | CCn1c(-c2ncc(OC)cc2Cl)c(-c2c(F)cccc2F)ccc1=O [Compound 8] | H (H shows more than 50% of control values) | H (H shows more than 50% of control values) | H (H shows more than 50% of control values) | H (H shows more than 50% of control values) | 
7 | COc1cnc(-c2c(-c3ccccc3)ccc(=O)n2C)c(Cl)c1 [Compound 9] | H (H shows more than 50% of control values) | H (H shows more than 50% of control values) | H (H shows more than 50% of control values) | H (H shows more than 50% of control values) | 
8 | CCn1c(-c2ncc(Cl)cc2Cl)c(-c2ccccc2)ccc1=O [Compound 10] | H (H shows more than 50% of control values) | H (H shows more than 50% of control values) | H (H shows more than 50% of control values) | H (H shows more than 50% of control values) | 
9 | CCn1c(-c2ncc(OC)cc2Cl)c(-c2ccccc2)ccc1=O [Compound 11] | H (H shows more than 50% of control values) | H (H shows more than 50% of control values) | H (H shows more than 50% of control values) | H (H shows more than 50% of control values) | 
10 | Cn1c(-c2ccncc2Cl)c(-c2ccccc2)ccc1=O [Compound 12] | L (L shows 50% or less of control values) | H (H shows more than 50% of control values) | H (H shows more than 50% of control values) | L (L shows 50% or less of control values) | 
11 | CCn1c(-c2ccncc2Cl)c(-c2ccccc2)ccc1=O [Compound 13] | H (H shows more than 50% of control values) | H (H shows more than 50% of control values) | H (H shows more than 50% of control values) | H (H shows more than 50% of control values) | 
12 | CCn1c(-c2c(F)cccc2F)c(-c2cc(OC)cc(OC)c2)ccc1=O [Compound 14] | H (H shows more than 50% of control values) | H (H shows more than 50% of control values) | L (L shows 50% or less of control values) | H (H shows more than 50% of control values) | 
13 | CCN1C(=O)CCC(c2cc(OC)cc(OC)c2)=C1c1c(F)cccc1F [Compound 15] | H (H shows more than 50% of control values) | H (H shows more than 50% of control values) | H (H shows more than 50% of control values) | H (H shows more than 50% of control values) | 
14 | CCn1c(-c2c(F)cccc2F)c(-c2cc(OC)cc(OC)c2Br)ccc1=O [Compound 16] | H (H shows more than 50% of control values) | H (H shows more than 50% of control values) | H (H shows more than 50% of control values) | H (H shows more than 50% of control values) | 
15 | CN1C(=O)CCC(c2ccc(F)cc2)=C1c1c(F)cccc1F [Compound 17] | L (L shows 50% or less of control values) | H (H shows more than 50% of control values) | H (H shows more than 50% of control values) | H (H shows more than 50% of control values) | 
16 | CCN1C(=O)CCC(c2ccc(F)cc2)=C1c1c(F)cccc1F [Compound 18] | H (H shows more than 50% of control values) | H (H shows more than 50% of control values) | H (H shows more than 50% of control values) | H (H shows more than 50% of control values) | 
17 | CCn1c(-c2c(F)cccc2F)c(-c2cccc(F)c2)ccc1=O [Compound 153] |  |  |  | H (H shows more than 50% of control values) | 
18 | Cc1ccccc1-c1ccc(=O)n(C)c1-c1c(F)cccc1F [Compound 180] |  | H (H shows more than 50% of control values) |  |  | 
19 | CCn1c(-c2c(F)cc(F)cc2F)c(-c2ccccc2Cl)ccc1=O [Compound 420] |  |  |  |  | Test C (control value class) (Alternaia brassicicola; 250 ppm spray): H (H shows more than 50% of control values); Test D (control value class) [1, 2]: H (H shows more than 50% of control values); Test B (control value class) (Botrytis cinerea; [3]): H (H shows more than 50% of control values)
20 | CCn1c(-c2c(F)cc(OC)cc2F)c(-c2cccc(F)c2Cl)cc(C)c1=O [Compound 515] |  |  |  |  | Test E (control value class) (Puccinia recondita): H (H shows more than 50% of control values); Test D (control value class) [1, 2]: H (H shows more than 50% of control values); Test B (control value class) (Botrytis cinerea; [3]): H (H shows more than 50% of control values)
21 | CCn1c(-c2c(F)cc(OC)cc2F)c(-c2cccc(F)c2C)cc(C)c1=O [Compound 516] |  |  |  |  | Test E (control value class) (Puccinia recondita): H (H shows more than 50% of control values); Test D (control value class) [1, 2]: H (H shows more than 50% of control values); Test B (control value class) (Botrytis cinerea; [3]): H (H shows more than 50% of control values)
22 | CCn1c(-c2c(F)cccc2F)c(-c2cccc(F)c2F)cc(Br)c1=O [Compound 520] |  |  |  |  | Test C (control value class) (Alternaia brassicicola; 250 ppm spray): H (H shows more than 50% of control values); Test D (control value class) [1, 2]: H (H shows more than 50% of control values); Test B (control value class) (Botrytis cinerea; [3]): H (H shows more than 50% of control values)
23 | Cn1c(-c2c(F)cc(F)cc2F)c(-c2cc(F)cc(F)c2Br)ccc1=O [Compound 815] |  |  |  |  | Test C (control value class) (Alternaia brassicicola; control value=100{1-(n/3)}): H (H shows more than 50% of control values); Test D (control value class) ([1]; Powdery mildew on barley, control value=100{1-(n/3)}): H (H shows more than 50% of control values); Test B (control value class) (Botrytis cinerea; Gray mold on tomato, control value=100{1-(n/3)}): H (H shows more than 50% of control values)
